Laboratory results: patent US11542275B2, “Substituted imidazolidin-2-one derivatives as PRMT5 inhibitors” (Aurigene Discovery Technologies Limited, priority 2018, dated 2023)

Biological target: PRMT5/MEP50 Complex (Homo sapiens (Human), UniProt O14744)
Assay: PRMT5 inhibition based on TR-FRET assay
Type: biochemical
Details: 32 nM PRMT5:MEP50 complex, 50 nM Histone-H4 peptide, 1 μM SAM, 90 minutes at room temperature
Excerpt: Protein arginine methyltransferase 5 (PRMT5) is a type II arginine methyltransferase that catalyze mono- and symmetric demethylation on arginine residues of histone or non-histone proteins in presence of S-adenosylmethionine (AdoMet or SAM) a cofactor responsible for donating the methyl group. PRMT5 is reported to be overexpressed in several human cancers. To identify compounds that inhibit the PRMT5 and decrease its activity, a TR-FRET based assay has been established. Time-resolved fluorescence resonance energy transfer (TR-FRET) HTS assays are homogeneous proximity assays where the interaction of two dye-labeled binding partners is detected by the energy transfer between a donor and an acceptor dye, and the subsequent light emission by the acceptor dye. PRMT5 catalyzes Histone H4 peptide which is biotin tagged to the Lysine amino acid at carboxyl end, in presence of S-adenosyl-1-methionine (SAM) to methylate the peptide. The antibody specific to mono methylated H4 peptide (H4R3) with Ig conjugate binds to the methylated peptide, indirectly binding to the Europium lanthanide. SureLight Allophycocyanin-Streptavidin binds to the biotin tag of the peptide, therefore accepting the energy transferred from the Europium lanthanide. This energy transfer between Europium to SureLight Allophycocyanin is a direct measure of the activity/inhibition of the PRMT5 enzyme.
Assay buffer: 20 mM BICINE (pH 7.6), 25 mM NaCl, 2 mM DTT, 0.01% Tween-20 and 0.01% BSA.
The compound dilutions were prepared as 7.5% DMSO stock solutions in assay buffer. To 2 μL (7.5×) of test compound, 5 μL of PRMT5 enzyme prepared in assay buffer (Final concentration of 32 nM in 15 μL reaction volume) was added and allowed for 30 minutes pre-incubation time in a white polystyrene 384-well plate at room temperature. […] The plates were then read on Victor-3 with Excitation at 340 nm and Emissions collected at 615 and 665 nm in TR-FRET protocol. […]

| SMILES | IC50 [µM] |
| --- | --- |
| O=C1N(Cc2ccc(C3CC3)nc2)CCN1CC(O)CN1CCc2ccccc2C1 (stereo not drawn) [Compound 75, 1-((6-cyclopropylpyridin-3-yl)methyl)-3-(3-(3,4-dihydroisoquinolin-2(1H)-yl)-2-hydroxypropyl)imidazolidin-2-one] | 0.207 |
| O=C1N(Cc2ccc(N3C4CCC3COC4)cn2)CCN1C[C@H](O)CN1CCc2ccccc2C1 [Compound 19, 1-((5-(3-oxa-8-azabicyclo[3.2.1]octan-8-yl)pyridin-2-yl)methyl)-3-((R)-3-(3,4-dihydroisoquinolin-2(1H)-yl)-2-hydroxypropyl)imidazolidin-2-one] | 0.037 |
| O=C(C1CC1)N1CCC(c2ccc(CN3CCN(C[C@H](O)CN4CCc5ccccc5C4)C3=O)cn2)CC1 [Compound 57, (R)-1-((6-(1-(cyclopropanecarbonyl)piperidin-4-yl)pyridin-3-yl)methyl)-3-(3-(3,4-dihydroisoquinolin-2(1H)-yl)-2-hydroxypropyl)imidazolidin-2-one] | 0.04 |
